We go through 87 compounds from article PMC4336329 (PLoS ONE, 2015).

The campaign covered roughly 310,000 compounds. About 2,200 (0.71%) showed an effect of 50% or more. The effect is printed as a negative number. The list shows a part of the results.

In this test the target is human ether-à-go-go-related gene (hERG) potassium channel (human, UniProt Q12809). As to the kind of experiment: primary screen, population patch clamp on CHO cells stably expressing hERG.
Sequence of human ether-à-go-go-related gene (hERG) potassium channel (Q12809 whole entry, looked up): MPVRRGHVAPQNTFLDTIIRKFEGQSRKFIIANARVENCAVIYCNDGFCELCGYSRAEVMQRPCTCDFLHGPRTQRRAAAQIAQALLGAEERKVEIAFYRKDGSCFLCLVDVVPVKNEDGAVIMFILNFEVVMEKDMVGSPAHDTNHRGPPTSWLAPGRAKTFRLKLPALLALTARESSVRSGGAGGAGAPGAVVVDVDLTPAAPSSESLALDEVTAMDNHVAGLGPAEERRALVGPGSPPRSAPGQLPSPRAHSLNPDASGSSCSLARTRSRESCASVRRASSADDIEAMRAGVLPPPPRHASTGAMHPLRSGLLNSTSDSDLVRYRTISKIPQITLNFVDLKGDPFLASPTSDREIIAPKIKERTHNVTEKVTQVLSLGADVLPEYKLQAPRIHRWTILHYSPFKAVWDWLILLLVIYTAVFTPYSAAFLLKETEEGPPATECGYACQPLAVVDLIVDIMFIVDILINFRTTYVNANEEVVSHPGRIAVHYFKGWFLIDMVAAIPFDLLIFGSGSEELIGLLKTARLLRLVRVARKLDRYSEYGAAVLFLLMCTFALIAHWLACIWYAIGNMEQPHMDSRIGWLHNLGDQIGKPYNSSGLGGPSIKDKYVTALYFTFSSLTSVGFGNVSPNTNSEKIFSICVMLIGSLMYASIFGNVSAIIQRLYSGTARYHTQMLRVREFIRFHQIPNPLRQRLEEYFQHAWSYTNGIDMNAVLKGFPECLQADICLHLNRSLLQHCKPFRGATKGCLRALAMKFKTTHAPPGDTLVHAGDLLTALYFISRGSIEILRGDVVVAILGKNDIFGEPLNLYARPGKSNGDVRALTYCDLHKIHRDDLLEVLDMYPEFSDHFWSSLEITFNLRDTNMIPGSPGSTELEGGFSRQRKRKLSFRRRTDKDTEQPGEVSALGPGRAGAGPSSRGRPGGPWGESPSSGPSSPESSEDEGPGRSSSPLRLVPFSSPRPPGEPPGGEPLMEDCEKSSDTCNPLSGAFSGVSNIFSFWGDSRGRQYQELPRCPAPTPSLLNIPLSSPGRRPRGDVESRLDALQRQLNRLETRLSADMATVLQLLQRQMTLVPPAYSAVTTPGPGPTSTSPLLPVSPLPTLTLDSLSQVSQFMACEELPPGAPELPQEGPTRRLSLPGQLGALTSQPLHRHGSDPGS
Turning to `CC(C)CC(NC=C1C(=O)OC(C)(C)OC1=O)C(=O)O` (stereo not drawn), the “hERG current change (%, negative = inhibition) at 1uM” value worked out at 4.64%. In the case of `CN1C(C(=O)Nc2ccc(OC(F)(F)F)cc2)=CC(c2ccco2)=NS1(=O)=O`, the “hERG current change (%, negative = inhibition) at 1uM” value came to 12.2%. Then `O=C(NC1CCCC1)c1cccc(Oc2ccccc2)c1`, with 4.9%; and `O=C(c1cc2c(ccc3ccccc32)o1)N1CCN(c2ncc(C(F)(F)F)cc2Cl)CC1`, with 10.3%; and `COc1ccc(NC(=O)C(NC(=O)CNC(C)=O)c2ccc(C)cc2)cc1` (stereo not drawn), with 9.3%.

On to `CCOc1ccccc1NC(=S)Nc1ccc(S(N)(=O)=O)cc1`, for which the “hERG current change (%, negative = inhibition) at 1uM” value is listed as 9.57%. In the case of `Cc1cc(C)nc(N2CCN(C(=O)CCC(=O)Nc3nnc(CC(C)C)s3)CC2)n1`, the “hERG current change (%, negative = inhibition) at 1uM” value came out at 10.7%. The same measure for `Cc1ccc(N(CC(=O)Nc2cc(C)ccc2C)S(C)(=O)=O)cc1`: 15.8%.

With `O=C1C=C(c2cccc(Cl)c2O)C[C@@H](c2ccc3c(c2)OCO3)C1`, the “hERG current change (%, negative = inhibition) at 1uM” value is recorded as 9.66%. As for `CCN(CC)S(=O)(=O)c1ccc(-c2nnc(SCC(=O)Nc3ccc(OC)cc3)o2)cc1`, the “hERG current change (%, negative = inhibition) at 1uM” value is given as -12.8%. Then `Cc1ccc(NC(=O)CN2C(=O)NC(Cc3ccccc3)C2=O)cc1Cl` (stereo not drawn), with 5.93%; and `NS(=O)(=O)c1ccc(CCNC(=O)C2CCCCN2S(=O)(=O)c2ccccc2)cc1` (stereo not drawn), with 1.84%.

As to `O=C(NCc1cccnc1)C(=O)NCC1OCCN1S(=O)(=O)c1ccc(Cl)cc1` (stereo not drawn), the “hERG current change (%, negative = inhibition) at 1uM” value is on record as -1.76%. The same measure for `CC(=O)Nc1ccc(NC(=O)c2ccc(NS(=O)(=O)c3cccc4cccnc34)cc2)cc1`: 17.9%. Then `Cc1nc(-c2ccc(C(=O)Nc3ccc(F)cc3)cc2)cs1`, with 10.8%.

Consider `Cc1ccc(F)cc1CNC(=O)C1CCC(=O)N(CCc2ccccc2)C1` (stereo not drawn), for which the “hERG current change (%, negative = inhibition) at 1uM” value is recorded as -14.4%. With `COc1ccc(-c2noc(CSc3ccc(C)cc3)n2)cc1`, the “hERG current change (%, negative = inhibition) at 1uM” value stood at 2.32%.

Regarding `COCc1cc(=O)n2[nH]c(C)nc2n1`, the “hERG current change (%, negative = inhibition) at 1uM” value was -1.01%. The same measure for `O=C(Nc1ccc(OC(F)(F)F)cc1)Oc1ccccc1N1CCOCC1`: 8.29%; for `COc1ccc(CCC(=O)OCC(=O)Nc2ccccc2OC(F)F)cc1OC`: 12%; for `Cc1cc(NC(=O)C(C)SCC(=O)N(C)CC(=O)Nc2ccc(F)cc2)no1` (stereo not drawn): 10.4%.

For `C=CCc1cc(C)ccc1OCCn1ccnc1.O=C(O)C(=O)O`, the “hERG current change (%, negative = inhibition) at 1uM” value is listed as 15.4%. As to `O=C(O)c1cc([N+](=O)[O-])ccc1NCc1ccccc1Cl`, the “hERG current change (%, negative = inhibition) at 1uM” value was determined as 7.43%. Consider `CC1CN(C2CCN(C(=O)COc3ccc(Cl)cc3)CC2)CC(C)O1.O=C(O)C(=O)O` (stereo not drawn), for which the “hERG current change (%, negative = inhibition) at 1uM” value is -0.775%. The same measure for `CC(=O)c1cn(CC(=O)Nc2ccc(C)cc2C)c2ccccc12`: 6.43%; for `CC(=O)Nc1ccc(S(=O)(=O)N2CCN(S(=O)(=O)c3ccc(F)c(F)c3F)CC2)cc1`: 8.97%; for `O=C(Nc1ccc(F)cc1)C1CCC(N2C(=O)c3ccccc3C2=O)CC1` (stereo not drawn): 10.8%.

In the case of `C=CCn1c(O)c(/C(C)=N/N2CCCCCC2)c(=O)[nH]c1=O`, the “hERG current change (%, negative = inhibition) at 1uM” value turned out to be 4.55%. On to `CN(O)C(=O)Nc1ccc([N+](=O)[O-])cc1`, for which the “hERG current change (%, negative = inhibition) at 1uM” value came out at 12.7%.

In the case of `Cn1c(SCC(=O)NNC(=O)c2ccccc2)nnc1C(F)(F)F`, the “hERG current change (%, negative = inhibition) at 1uM” value is on record as 11.6%.

For the compound `Cn1c(NCC(O)c2ccccc2)nc2c1c(=O)n(Cc1ccc(Cl)c(Cl)c1)c(=O)n2C` (stereo not drawn), the “hERG current change (%, negative = inhibition) at 1uM” value worked out at 3.66%. The same measure for `COc1ccc(C(O)P(=O)(OC(C)C)c2ccc(N(C)C)cc2)c(OC)c1` (stereo not drawn): 16.6%.

Take `Cc1ccc(C)c(N(C)C(=O)COc2cc(=O)n(C)c3ccccc23)c1`: the “hERG current change (%, negative = inhibition) at 1uM” value is listed as -3.31%. Then `C=CCNc1nc(-c2cccc(OC)c2O)nc2ccccc12`, with 9.57%; and `Cc1ccc(C)c(Nc2nc(-c3ccncc3)nc3ccccc23)c1`, with 1.82%; and `C1=C(c2c[nH]c3ccccc23)CCNC1`, with 14.2%.

On to `COc1cc(C2/C(=C(/O)c3ccccc3)C(=O)C(=O)N2c2ccccn2)ccc1O` (stereo not drawn), for which the “hERG current change (%, negative = inhibition) at 1uM” value turned out to be 18.5%.

Consider `CC(C)Cc1cc(C(=O)O)n[nH]1`, for which the “hERG current change (%, negative = inhibition) at 1uM” value came to 5.43%. Then `O=C(OCCC1Oc2cccnc2NC1=O)c1ccc(F)cc1` (stereo not drawn), with -0.117%; and `O=C(Cn1nc(C(F)(F)F)c2c1CCC2)NC1CCCCC1`, with 5.98%; and `COCCN(C(=O)CSc1nnc(C)n1Cc1ccccc1)c1c(N)n(Cc2ccccc2)c(=O)[nH]c1=O`, with 13.1%. The same measure for `Cc1ccc(/C=N/c2sc3c(c2C#N)CCCCC3)o1`: 7.67%; for `COc1ccccc1NC(=O)N1CCC(c2nc3cc(C)c(C)cc3[nH]2)CC1`: -9.29%; for `CC1(C)OC(=CC=Nc2ccc(Cl)cc2)OC1(C)C`: 11.5%. The same measure for `CC(=O)NC1=NN(c2ccccc2)C(=O)C1`: 20.3%.

Turning to `CC(O)[C@H]1CNC(=O)C(=O)N1CCC12CC3CC(CC(C3)C1)C2` (stereo partly drawn), the “hERG current change (%, negative = inhibition) at 1uM” value is 7.41%.

Take `Cc1ccc(C2=NCCn3c2c2ccc([N+](=O)[O-])cc2[n+]3[O-])cc1`: the “hERG current change (%, negative = inhibition) at 1uM” value was 12.2%. The same measure for `Cc1ccc(CN(C)C(=O)C2CCC(=O)N(CC3CCCCC3)C2)o1` (stereo not drawn): 14.6%; for `Cc1cc(NC(=O)COc2ccc(Cl)cc2Cl)n(CCC#N)n1`: 12.2%; for `CC(NC(=O)c1cc(-c2ccccn2)nc2ccc(Cl)cc12)C1CCCO1` (stereo not drawn): 10.3%. The same measure for `CCOCCOC(=O)C(C)Oc1ccc(Oc2ncc(Cl)cc2Cl)cc1` (stereo not drawn): 5.76%; for `O=C(c1cc([N+](=O)[O-])ccc1N1CCCC1)N1CCCCC1`: 12.9%. Then `Nc1ccccc1C#CC(=O)c1ccccc1`, with 15%; and `Cc1ccc(NC(=S)NNS(=O)(=O)c2ccc3ccccc3c2)cc1Cl`, with 7.2%. `CCCCC1C(C#N)=C(C)NC2=C1C(=O)CC(C)(C)C2` (stereo not drawn): the “hERG current change (%, negative = inhibition) at 1uM” value worked out at 0.564%.

As for `O=C(/C=C/c1cccs1)NCc1ccccc1`, the “hERG current change (%, negative = inhibition) at 1uM” value came out at 9.97%. The same measure for `CC(=O)Nc1ccc(N/C(N)=N/c2nc(C)cc(C)n2)cc1`: 8.5%.

On to `CCC(C)n1c(SCC(=O)NC2CCS(=O)(=O)C2)nc2ccccc2c1=O` (stereo not drawn), for which the “hERG current change (%, negative = inhibition) at 1uM” value is on record as -7.93%. As for `C=CCSc1nncn1/N=C/c1ccc(OC)cc1`, the “hERG current change (%, negative = inhibition) at 1uM” value is -5.99%. Then `COc1ccc(-c2nc(-c3ccccc3)c(-c3cccs3)[nH]2)cc1OC`, with 16.6%; and `Cc1c(CC(=O)N2C[C@H]3C[C@@H](C2)c2cccc(=O)n2C3)c(=O)oc2c(C)c(O)ccc12`, with 3.54%. Then `Cc1ccc2nc(NC(=O)c3ccc(OCC4CCCO4)cc3)sc2c1` (stereo not drawn), with 10.5%. Then `CNC(=O)c1ccccc1S(=O)c1ccccc1COC(C)=O` (stereo not drawn), with 6.74%; and `COc1ccc(OC(=O)N2CCOCC2)cc1`, with 7.5%; and `COc1ccc(NC(=O)c2noc3c2CCCCC3)cc1`, with 7.21%.

On to `CC(=O)c1cccc(NC(=O)CSc2nc(C3CC3)nc3ccccc23)c1`, for which the “hERG current change (%, negative = inhibition) at 1uM” value came out at 9.33%. The same measure for `COc1ccc(Nc2nc(N)c(C(=O)c3ccc(F)cc3)s2)cc1`: 22.2%; for `c1ccc(C2CCC(N3CCN(c4ccccc4)CC3)CC2)cc1` (stereo not drawn): 0.918%. Then `O=C(NC1CCOCC1)C1CCC(=O)N(Cc2ccc(Cl)cc2)C1` (stereo not drawn), with 18.1%; and `CCN(CC)CCNc1ccc(Cl)cc1[N+](=O)[O-].Cl`, with -41.1%. For the compound `Cc1ccc(S(=O)(=O)NN2C(=O)/C(=C/c3ccccn3)SC2=S)cc1`, the “hERG current change (%, negative = inhibition) at 1uM” value came to 3.98%.

As for `O=C(Nc1ccccc1F)c1cc(S(=O)(=O)N2CCOCC2)cs1`, the “hERG current change (%, negative = inhibition) at 1uM” value was 12.4%. The same measure for `Nc1ccc2oc(-c3ccccc3Cl)cc(=O)c2c1O`: 6.61%. As to `COc1ccc(-n2nnnc2CNC(=O)C(=O)c2c[nH]c3ccccc23)cc1`, the “hERG current change (%, negative = inhibition) at 1uM” value was 18.7%. The same measure for `COC(=O)c1ccccc1S(=O)(=O)N1CCC(C(=O)OC(C)C(=O)Nc2ccc(NC(C)=O)cc2)CC1` (stereo not drawn): 0.0636%; for `CCOC(=O)[C@H]1[C@H]2COc3ccc(OC)cc3[C@@H]2N2C(=O)CN(C)C(=O)[C@@]12C`: 10.1%. The same measure for `CN1C(=O)N(C)C(=O)C2(Cc3c(ccc4ccccc34)N(C)C2)C1=O`: 12.3%; for `C/C(=N\N1CCN(Cc2ccc(C)cc2)CC1)c1ccco1`: -44.7%; for `CCCn1nc2cc(C(=O)NCC34CC5CC(CC(C5)C3)C4)ccc2c1OCC`: 12.7%. Then `O=C(c1ccncc1)N1CCN(C(=O)c2cccc3ccccc23)CC1`, with 12%; and `O=C(/C=C/c1ccc(OC(F)F)cc1)Nc1cccc(S(=O)(=O)N2CCOCC2)c1`, with 5.77%.

For the compound `COCCn1c(NC(=S)NC(=O)C2CC2)cc(=O)[nH]c1=O`, the “hERG current change (%, negative = inhibition) at 1uM” value was determined as 13.7%. The same measure for `Clc1ccccc1Nc1nnc(-c2ccncc2)s1`: 4.73%. Then `CCCCNC(=O)C(c1ccc(OCC(=O)OC)c(C(=O)OC)c1)N(CCOC)C(=O)CCCCCN1C(=O)NC(c2ccc(-c3ccccc3)cc2)C(C(=O)OCc2ccccc2)=C1C` (stereo not drawn), with 12.6%; and `CC(=O)N1CCN(c2ccccc2NC(=O)COc2ccc(Br)cc2)CC1`, with 8.81%; and `COc1ccc(/C=N\NS(=O)(=O)c2ccc(C)cc2)cc1COc1ccccc1[N+](=O)[O-]`, with -1.33%.

In the case of `Cc1ccc(CNC(=O)c2cn(C)c3ccc(S(=O)(=O)N4CCOCC4)cc3c2=O)cc1`, the “hERG current change (%, negative = inhibition) at 1uM” value is 10.9%.
